# Test results from patent EP4691482A1, “LONG-ACTING CALCITONIN ANALOG” (Chengdu Aoda Biotechnology Co., Ltd., priority 2023, dated 2024).
# At least one structure is not confirmed: it was looked up by name or label, or the drawing left a doubt.
# Molecular target: T1, calcitonin receptors (CTR) (Homo sapiens, UniProt P30988)
# T1 construct: expressed in transfected cells; host or cells: cAMP Hunter HEK293-CT-R Gs cell line (HEK293, stably transfected)
# T1 sequence (P30988 25-474): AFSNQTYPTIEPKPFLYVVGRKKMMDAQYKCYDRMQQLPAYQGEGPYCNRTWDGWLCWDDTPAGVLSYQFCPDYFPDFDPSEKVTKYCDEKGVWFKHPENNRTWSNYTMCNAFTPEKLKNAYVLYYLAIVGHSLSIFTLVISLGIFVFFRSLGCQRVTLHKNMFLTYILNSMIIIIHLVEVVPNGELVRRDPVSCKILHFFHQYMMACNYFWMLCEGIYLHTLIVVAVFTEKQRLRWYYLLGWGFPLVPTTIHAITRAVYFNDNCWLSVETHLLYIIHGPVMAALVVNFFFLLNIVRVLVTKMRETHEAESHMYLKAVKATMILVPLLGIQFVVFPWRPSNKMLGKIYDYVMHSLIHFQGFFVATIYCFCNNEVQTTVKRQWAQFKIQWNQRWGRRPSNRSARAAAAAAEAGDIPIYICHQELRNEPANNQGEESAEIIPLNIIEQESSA
# Experiment: cAMP determination (HTRF, cAMP Dynamic 2 Kit) in cAMP Hunter HEK293-CT-R Gs cell line
# Assay type: cell-based
# Conditions: HEK293 cell line stably expressing CT-R; intracellular cAMP, HTRF
structure (smiles),measurement,value
"CC(C)C[C@H](NC(=O)[C@H](CCCCN)NC(=O)CNC(=O)[C@H](CC(C)C)NC(=O)[C@@H](NC(=O)[C@@H]1CSSC[C@H](N)C(=O)N[C@@H](CO)C(=O)N[C@@H](CC(N)=O)C(=O)N[C@@H](CC(C)C)C(=O)N[C@@H](CO)C(=O)N[C@@H]([C@@H](C)O)C(=O)N1)C(C)C)C(=O)N[C@@H](CO)C(=O)N[C@@H](CCC(N)=O)C(=O)N[C@@H](CCC(=O)O)C(=O)N[C@@H](CC(C)C)C(=O)N[C@@H](Cc1c[nH]cn1)C(=O)N[C@@H](CCCCNC(=O)COCCOCCOCCOCCOCCOCCNC(=O)CC[C@H](NC(=O)CCCCCCCCCCCCCCCCCCC(=O)O)C(=O)O)C(=O)N[C@@H](CC(C)C)C(=O)N[C@@H](CCC(N)=O)C(=O)N[C@H](C(=O)N[C@@H](Cc1ccc(O)cc1)C(=O)N1CCC[C@H]1C(=O)N[C@@H](CCCNC(=N)N)C(=O)N[C@H](C(=O)N[C@@H](CC(N)=O)C(=O)N[C@H](C(=O)NCC(=O)N[C@@H](CO)C(=O)NCC(=O)N[C@H](C(=O)N1CCC[C@H]1C(N)=O)[C@@H](C)O)[C@@H](C)O)[C@@H](C)O)[C@@H](C)O [Compound 6, Cys-Ser-Asn-Leu-Ser-Thr-Cys-Val-Leu-Gly-Lys-Leu-Ser-Gln-Glu-Leu-His-Lys(PEG6CH2CO-yGlu-eicosanedioic acid)-Leu-Gln-Thr-Tyr-Pro-Arg-Thr-Asn-Thr-Gly-Ser-Gly-Thr-Pro-NH2]",EC50,5.5 pM
